In all, about 33,000 sequences were measured (“E-score (-0.5 to 0.5)”: median about -0.016, highest 2% from about 0.32 on). Some of the results follow.
Each sequence was assayed against T1, Stp1 (UniProt B3LFK1) (assay: PBM E-score (8-mer binding enrichment) (E-score (-0.5 to 0.5)); higher = stronger / more preferred TF binding; most listed sequences are background and not binding sites). Conditions: protein concentration: 200 nM; construct: GST-full length.
T1 sequence: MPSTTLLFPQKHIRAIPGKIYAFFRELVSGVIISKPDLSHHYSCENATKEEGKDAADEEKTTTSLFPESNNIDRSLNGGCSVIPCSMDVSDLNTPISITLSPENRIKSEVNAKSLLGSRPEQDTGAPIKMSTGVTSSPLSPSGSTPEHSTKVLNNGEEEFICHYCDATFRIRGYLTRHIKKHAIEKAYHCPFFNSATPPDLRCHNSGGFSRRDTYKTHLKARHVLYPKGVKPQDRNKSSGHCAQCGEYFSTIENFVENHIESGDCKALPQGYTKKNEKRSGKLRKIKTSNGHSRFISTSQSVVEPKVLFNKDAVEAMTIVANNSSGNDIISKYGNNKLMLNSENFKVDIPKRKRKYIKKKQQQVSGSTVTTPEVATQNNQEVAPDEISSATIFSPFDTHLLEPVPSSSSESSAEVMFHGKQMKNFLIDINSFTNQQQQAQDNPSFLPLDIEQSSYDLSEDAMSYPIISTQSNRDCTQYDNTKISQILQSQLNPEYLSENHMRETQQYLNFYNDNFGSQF
Outline: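 Full-length yeast transcription factors or their DNA-binding domains, GST-tagged and expressed with PURExpress, were applied at about 100-200 nM to universal all-10-mer Agilent arrays. These arrays had been made double-stranded by primer extension on fresh or once-stripped slides. Detection used fluorescent anti-GST, normalisation used masliner, and E-scores for ungapped eight-base words pooled with reverse complements came from the Universal PBM Analysis Suite.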

Sequence	PBM E-score
AAAGGTGT	-0.18
CAGGACTC	-0.213
AATTGACT	0.0682
CCCCAGAG	-0.358
ACCCACTC	-0.126
AAGGCATT	0.322
CCTTATTA	0.0711
AAACTTGC	0.116
ATGTTCTA	-0.0361
ACCTCCCA	-0.193
AGCGGTCG	-0.232
ATACGTCA	0.02
TCCATTCA	0.00937
CAACTCGG	-0.139
AGAGCAGC	-0.0622
GACTGACC	-0.312
ACCCACAA	0.176
CTAGCTGC	-0.167
ACCATGCT	-0.0869
CAAGTTTC	0.127
CCGTCGGA	-0.123
GCACTAGC	-0.0111
CCGCCCTC	0.00395
GACCAATA	0.0246
AGTGCCAT	0.18

Sequence	PBM E-score
GGCTGCTA	0.0399
ACCGGGAC	-0.142
GTGACGAA	0.0563
CCCAAGGG	-0.295
AATAAGAG	0.164
ATAGTTGG	0.0208
AGTCCGAA	0.0608
AATTTTAT	0.203
CACCATTC	0.0105
ACCAATGA	-0.178
AGGAGTAC	-0.122
AGTAGTCG	-0.0173
ATTCAAAC	0.11
ACGGGAGA	-0.0974
ACAGGTTA	-0.21
CCCAACCA	-0.0358
CCTTGCAA	0.126
GCTGTGAA	-0.0891
TATGCTCA	-0.0187
ATGTCCAA	0.0605
TGCGTAAA	0.115
GCGAAGAC	-0.013
CGTTCTTC	0.156
GAAAACCC	-0.036
AATGAGCA	-0.158

Sequence	PBM E-score
AGCCCCAG	-0.0897
AATTCATC	-0.135
GTTCACCA	-0.0849
CCGTAGAG	0.0533
ATGCCCAG	-0.0625
CGCTAAAC	0.132
CAGTAAGC	0.0252
AGGTGCCG	0.385
GCCGAAGC	0.0659
CCCCACCG	-0.241
GATATTGC	-0.0426
CGGGCATC	-0.152
CGGAAGTA	0.101
GATAATAA	0.00829
CCGACCAC	-0.107
AACCAGAA	0.0351
GAAAGTGA	-0.272
ACTAGGAC	-0.296
AACTCTGA	0.144
AGATCTTG	-0.102
AGCGCAAT	-0.0898
CTGCTAGC	-0.247
CTGAATTA	0.139
AAATTACT	0.191
CAATATAG	0.104

Sequence	PBM E-score
AGGCATAA	0.178
CTGCACTA	0.159
ATTGTCTG	-0.0201
ATGGTCGG	-0.0924
AGTACCGC	0.113
GTGCACAA	-0.119
AAGTCCGT	-0.0471
ACGTCGAA	-0.0911
GGTTTAAA	0.099
CAGAAAGC	-0.0444
CAATTCCA	-0.0728
CCCGATAG	-0.195
ATCTACAC	0.0776
CGGCCTAC	0.0473
ACTTTGTA	-0.00379
CGTTATGC	0.0838
CTTACTGA	-0.0425
CGATGCTC	-0.236
TCACTGCA	0.131
TAAACGGA	0.216
AGCCACAG	-0.187
GAAGTAGA	-0.0869
ACAAGCAT	0.0735
ATGCTGAC	-0.0531
ACAAAAAG	0.0515

Sequence	PBM E-score
CCCCTACC	-0.212
AATAAGAT	0.0522
TGGGTACA	-0.0522
TAGCGTGA	-0.0517
GGGTAATA	-0.0259
ATCATTTG	-0.137
ACTTTTAT	0.0423
CGATACGA	-0.183
CCCTACTA	-0.0442
GATATGTA	0.122
CAGCAAAC	-0.0549
TTAGCGAA	0.0705
CATTGAAG	-0.103
CGGCTCGC	0.281
CCGACGAC	-0.17
AATATAAT	0.0522
CCTTAGAC	-0.0879
ACCACAAA	0.15
AGGCAGCA	0.0881
CGTGCCAG	0.172
AAGGTGAT	-0.0969
CTCCATTA	-0.101
AGCCTACT	-0.181
CGTCTTCC	-0.0987
GCCATCAA	-0.068

Sequence	PBM E-score
TAACTTGA	-0.0515
CCTACGCA	0.0834
AACCTCGC	-0.162
CCCTCCAG	-0.207
GACCGAGA	-0.0588
AAGCGTCG	-0.146
GTTGCCGA	0.159
ATCGTCCC	-0.232
CCAACATA	0.228
CAAGTCTG	-0.33
CGTGCGCA	0.0559
CAGGGTGA	-0.313
CCCTAAGC	-0.189
CGATGCTA	-0.00577
CATGACAC	0.16
CAGCATTC	-0.0991
ATCTGAAC	-0.00491
ACTTCTGG	-0.103
AGTCGCTC	-0.272
CGCCACGA	0.00358
ACCAAATA	0.183
ACGCGGGA	0.0444
GCCTGCAC	-0.097
GTTACATA	0.101
ACTTTGTG	0.0858

Sequence	PBM E-score
GTTCGGTA	0.0739
TGGCCGAA	-0.103
CTCTCATA	0.0216
CGTCTACA	-0.184
AACGGATG	0.15
CCTCATCC	-0.189
CAGGTAGC	-0.152
ACTTCGCA	-0.0561
ACACCGTA	-0.0212
ATCATCAC	0.0614
CCGTAGCG	0.126
TAATTGTA	0.154
AGAACCTC	-0.0711
CTGGGGAA	-0.37
AAGCATTA	-0.0707
AATATTGA	0.0546
TCTCAGAA	0.0131
TGGGAAAA	0.0523
CAATGCGC	0.147
CTACGGGC	-0.317
TCAAGTGA	-0.147
GCAAACGC	-0.0167
AGATGACT	-0.291
AGGCCTCG	-0.202
AATATTCG	0.14

Sequence	PBM E-score
CCCTACCC	-0.15
GACGTGCA	0.132
ACTAACAA	0.16
TCCAACAA	0.0431
TAGTAGGA	-0.18
GCTTTGAC	0.026
ACCGGGCC	-0.14
ACCGACAC	0.0201
AGGTATAC	0.0174
AAGGACGA	-0.149
GACGTATC	-0.0996
CAATCTCG	0.0119
CGACGCCG	0.457
AAAAGAGG	-0.0808
ATGCTCCA	-0.129
GAATTCGC	0.0576
ACCGGCCG	0.232
TGTACCAA	-0.0707
GAACCCAC	-0.0263
AGAGTTGA	-0.284
CATTTCTA	0.0932
AGATTTCG	0.158
GACGGGAA	0.0155
GAAGTCCC	-0.243
GTGACCAA	-0.0172

Sequence	PBM E-score
ATGATACG	0.222
CTCTGGCC	-0.0958
AATTCTAG	0.0882
CAAGCAAC	0.0476
ACCGAAGA	-0.00975
CTCGGCAA	0.1
GTAACGTA	-0.00488
CTTTATCC	-0.105
ATTGGCTA	-0.0737
AAACACGT	0.0747
ACAAGTCG	-0.152
ACAGATCC	0.1
CCTATAAG	-0.235
AGGTGGAA	-0.125
AGTTTAGA	-0.0385
ATACGTCC	-0.0977
AGCTAGCG	-0.155
AGGATACC	-0.187
AGGCACTA	0.301
AATCAATT	0.218
CCCCCTGC	-0.346
CTGAGCAC	-0.19
AGTCCTGC	-0.228
CTATTCGC	0.0152
GTAATCAA	0.296

Sequence	PBM E-score
GCCTCCCC	-0.121
CTCGTCGA	-0.0577
AACTGAAT	-0.0877
GCAGACGC	0.0501
AAGGGGTC	-0.348
GAGGTACA	-0.0637
AACTATCT	-0.0437
GACCTTAA	-0.0305
CTATATCC	-0.152
AGGGTGAC	-0.163
ATATCCTC	-0.109
CGACATTC	0.0805
AGAGTACT	-0.0958
CAACTTGG	0.183
AGGGTGAG	-0.125
ACCTATTA	-0.0741
ATAAACTC	0.174
CAGTATCG	0.0809
ACAAGCCA	-0.0362
CCATGACA	-0.0644
CTGCTGGA	-0.0314
CCCTGGCG	-0.0313
AGGCAATG	0.0553
CTCGTGCC	0.294
ATTCATAA	0.125

Sequence	PBM E-score
CCGCACAG	0.201
CGGCAAGC	0.124
ATCGTGAA	-0.0119
ACGGTATC	0.113
CAGTAAAA	0.031
CCTTTAGA	-0.0438
CAACAACG	0.0339
CCGATAGA	-0.114
CATCATAA	0.178
AACGGCCC	0.235
CCGTGGTA	0.149
CCAGAAAA	-0.0809
CTAATGAC	-0.118
GCAAAATA	0.104
CATGCCCG	-0.115
CTTCTTCA	-0.0169
GGTCGACC	-0.00481
CGCAATGA	-0.0583
ATCAGTAA	0.154
GCAATAGC	0.0926
GACGGCTA	0.235
AGGGACAT	0.0229
AATGATAT	0.175
GTGCCTAA	0.184
AGAATAAA	0.131

Sequence	PBM E-score
ACAGAGTG	-0.107
ATGCGTCG	-0.149
TAAGAATA	-0.0476
CAACAGGG	-0.0414
AACGGCGG	0.378
AGCGACCG	-0.0169
AATAATTG	0.0649
CAAGCACA	0.0261
ACCTCCGC	-0.0776
CAGACCAA	-0.0845
CAAGGTTA	-0.147
ATAACGAA	0.0556
ACAGTGGG	-0.219
AAAGTATA	0.0839
CCGTACGG	0.341
CTTGTTCA	-0.062
GCGGTACC	-0.0227
TGCCAGCA	0.01
GTCGTGAA	-0.234
TCACAGCA	0.128
TGCGCAAA	0.0949
AACACACA	0.113
GAGATCAC	-0.112
AAAGTAAT	0.153
AGAAGTAC	-0.141

Sequence	PBM E-score
GAATTAGC	0.0417
CAGGAGGG	-0.238
GTCCCATA	-0.166
ATGATTTA	0.17
ACACCGAC	-0.113
CATCGGGA	-0.1
GGCAAATA	0.261
GTCCGACA	-0.00015
GGGCGTTA	0.206
AGCGGAGC	0.11
TAGTCTGA	0.00058
CGGACACC	-0.0328
CGGATCAA	0.161
CCCGGATA	-0.245
CTCTCATC	-0.141
CGTCCACA	-0.0597
CCGCCGCA	0.402
TAAGACAA	0.239
GGCTCTAC	0.187
ACCCTAAT	-0.098
ACGGGTTC	0.112
CTCCGAGC	-0.0689
CATAATTA	0.162
AAGATGTA	-0.0371
CGTAGAGC	0.201

Sequence	PBM E-score
CCATTCGA	-0.0302
GACGGTGA	-0.0519
GGAACACC	-0.251
AGAACTAA	0.0762
GACCCTCC	-0.25
TCAACGCA	0.082
ATCGACGG	0.199
CTTCCCAC	-0.0242
GCAACCAA	0.0778
ATCGGCTG	-0.0281
AACGCAGA	-0.134
CGTGGACC	0.0121
AGTTTTTC	0.0118
AGAGATAA	0.0526
CACACACG	0.267
CGTTGCCA	0.0776
ATCGATTC	-0.0295
GGGCTGAA	0.00916
GGCACATA	0.283

From the supplement of paper PMC3334620
